Experimental data published in publication PMC9911399, “Two distinct binding modes provide the RNA-binding protein RbFox with extraordinary sequence specificity”.
Numbering of substitutions follows the chain as printed; changes in the protein carry UniProt numbers. The list shows a part of the results.

T1: RBFOX1 RRM RbFoxmut (Fox-RRM*) (Homo sapiens, UniProt Q9NWB1 109-208, R118D;E147R;N151S;E152T)
T1 sequence: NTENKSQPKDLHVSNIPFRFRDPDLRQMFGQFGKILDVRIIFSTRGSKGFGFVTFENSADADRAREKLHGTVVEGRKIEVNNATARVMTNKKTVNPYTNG

B1: GUCAUGU (DNA:RNA)
RNA: GGGAGACCGGAAUUCAGAUUGUCCGUCAUGUUUAAAUCCCGUCGUAGCCACCA
DNA 1: CAATCTGAATTCCGGTCTCCC
DNA 2: TGGTGGCTACGACGGGATT
B2: GAACUAG (DNA:RNA)
RNA: B1 RNA with U26A, C27A, A28C, G30A, U31G
DNA 1: CAATCTGAATTCCGGTCTCCC
DNA 2: TGGTGGCTACGACGGGATT
B3: GGCAAGU (DNA:RNA)
RNA: B1 RNA with U26G, U29A
DNA 1: CAATCTGAATTCCGGTCTCCC
DNA 2: TGGTGGCTACGACGGGATT
B4: UCCCCCG (DNA:RNA)
RNA: B1 RNA with G25U, U26C, A28C, U29C, G30C, U31G
DNA 1: CAATCTGAATTCCGGTCTCCC
DNA 2: TGGTGGCTACGACGGGATT
B5: CCGUGGC (DNA:RNA)
RNA: B1 RNA with G25C, U26C, C27G, A28U, U29G, U31C
DNA 1: CAATCTGAATTCCGGTCTCCC
DNA 2: TGGTGGCTACGACGGGATT
B6: GGGCGCC (DNA:RNA)
RNA: B1 RNA with U26G, C27G, A28C, U29G, G30C, U31C
DNA 1: CAATCTGAATTCCGGTCTCCC
DNA 2: TGGTGGCTACGACGGGATT
B7: ACAAUGC (DNA:RNA)
RNA: B1 RNA with G25A, U26C, C27A, U31C
DNA 1: CAATCTGAATTCCGGTCTCCC
DNA 2: TGGTGGCTACGACGGGATT
B8: AAGUCUA (DNA:RNA)
RNA: GGGAGACCGGAAUUCAGAUUGUCCAAGUCUAUUAAAUCCCGUCGUAGCCACCA
DNA 1: CAATCTGAATTCCGGTCTCCC
DNA 2: TGGTGGCTACGACGGGATT
B9: GAAUAUG (DNA:RNA)
RNA: B8 RNA with A25G, G27A, C29A, A31G
DNA 1: CAATCTGAATTCCGGTCTCCC
DNA 2: TGGTGGCTACGACGGGATT
B10: AUCUGUU (DNA:RNA)
RNA: B8 RNA with A26U, G27C, C29G, A31U
DNA 1: CAATCTGAATTCCGGTCTCCC
DNA 2: TGGTGGCTACGACGGGATT
B11: CAUACCU (DNA:RNA)
RNA: B8 RNA with A25C, G27U, U28A, U30C, A31U
DNA 1: CAATCTGAATTCCGGTCTCCC
DNA 2: TGGTGGCTACGACGGGATT
B12: GCAUCAC (DNA:RNA)
RNA: B8 RNA with A25G, A26C, G27A, U30A, A31C
DNA 1: CAATCTGAATTCCGGTCTCCC
DNA 2: TGGTGGCTACGACGGGATT
B13: GGGGGCC (DNA:RNA)
RNA: B8 RNA with A25G, A26G, U28G, C29G, U30C, A31C
DNA 1: CAATCTGAATTCCGGTCTCCC
DNA 2: TGGTGGCTACGACGGGATT
B14: GAAGUAG (DNA:RNA)
RNA: B1 RNA with U26A, C27A, A28G, G30A, U31G
DNA 1: CAATCTGAATTCCGGTCTCCC
DNA 2: TGGTGGCTACGACGGGATT
B15: UUAAUAC (DNA:RNA)
RNA: B1 RNA with G25U, C27A, G30A, U31C
DNA 1: CAATCTGAATTCCGGTCTCCC
DNA 2: TGGTGGCTACGACGGGATT
B16: AUGCACG (DNA:RNA)
RNA: B8 RNA with A26U, U28C, C29A, U30C, A31G
DNA 1: CAATCTGAATTCCGGTCTCCC
DNA 2: TGGTGGCTACGACGGGATT
B17: UAUUGUA (DNA:RNA)
RNA: B8 RNA with A25U, G27U, C29G
DNA 1: CAATCTGAATTCCGGTCTCCC
DNA 2: TGGTGGCTACGACGGGATT
B18: CGCUCAU (DNA:RNA)
RNA: B8 RNA with A25C, A26G, G27C, U30A, A31U
DNA 1: CAATCTGAATTCCGGTCTCCC
DNA 2: TGGTGGCTACGACGGGATT
B19: AGGAAGG (DNA:RNA)
RNA: B8 RNA with A26G, U28A, C29A, U30G, A31G
DNA 1: CAATCTGAATTCCGGTCTCCC
DNA 2: TGGTGGCTACGACGGGATT
B20: UAGCCGG (DNA:RNA)
RNA: B8 RNA with A25U, U28C, U30G, A31G
DNA 1: CAATCTGAATTCCGGTCTCCC
DNA 2: TGGTGGCTACGACGGGATT
B21: CGACUAG (DNA:RNA)
RNA: B1 RNA with G25C, U26G, C27A, A28C, G30A, U31G
DNA 1: CAATCTGAATTCCGGTCTCCC
DNA 2: TGGTGGCTACGACGGGATT
B22: CUUUGAG (DNA:RNA)
RNA: B8 RNA with A25C, A26U, G27U, C29G, U30A, A31G
DNA 1: CAATCTGAATTCCGGTCTCCC
DNA 2: TGGTGGCTACGACGGGATT
B23: UGUUUGC (DNA:RNA)
RNA: B1 RNA with G25U, U26G, C27U, A28U, U31C
DNA 1: CAATCTGAATTCCGGTCTCCC
DNA 2: TGGTGGCTACGACGGGATT
B24: CCCACGA (DNA:RNA)
RNA: B1 RNA with G25C, U26C, U29C, U31A
DNA 1: CAATCTGAATTCCGGTCTCCC
DNA 2: TGGTGGCTACGACGGGATT
B25: GGGUUUC (DNA:RNA)
RNA: B8 RNA with A25G, A26G, C29U, A31C
DNA 1: CAATCTGAATTCCGGTCTCCC
DNA 2: TGGTGGCTACGACGGGATT
B26: CCAGUGU (DNA:RNA)
RNA: B1 RNA with G25C, U26C, C27A, A28G
DNA 1: CAATCTGAATTCCGGTCTCCC
DNA 2: TGGTGGCTACGACGGGATT
B27: CGCUGUG (DNA:RNA)
RNA: B8 RNA with A25C, A26G, G27C, C29G, A31G
DNA 1: CAATCTGAATTCCGGTCTCCC
DNA 2: TGGTGGCTACGACGGGATT
B28: GAACAGA (DNA:RNA)
RNA: B8 RNA with A25G, G27A, U28C, C29A, U30G
DNA 1: CAATCTGAATTCCGGTCTCCC
DNA 2: TGGTGGCTACGACGGGATT
B29: UGCCUUA (DNA:RNA)
RNA: B8 RNA with A25U, A26G, G27C, U28C, C29U
DNA 1: CAATCTGAATTCCGGTCTCCC
DNA 2: TGGTGGCTACGACGGGATT
B30: UUAAAUA (DNA:RNA)
RNA: B8 RNA with A25U, A26U, G27A, U28A, C29A
DNA 1: CAATCTGAATTCCGGTCTCCC
DNA 2: TGGTGGCTACGACGGGATT
B31: CGCGCUA (DNA:RNA)
RNA: B8 RNA with A25C, A26G, G27C, U28G
DNA 1: CAATCTGAATTCCGGTCTCCC
DNA 2: TGGTGGCTACGACGGGATT

These binders were tested against T1, RBFOX1 RRM RbFoxmut (Fox-RRM*) (assay: EMSA; HiTS-Eq, 1 nM pool, 10 min; buffer printed only for the single-RNA assays: 10 mM Tris pH 7.5, 150 mM NaCl, 3.4 mM EDTA, 0.001% NP-40, 30 C). Details: tags: His6 N-terminal (pET28a); label: 5' 32P.
Procedure, shortened: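 Purified RbFox RRM, wild type or mutant, was incubated for 10 min in 50 µL with 1 nM of a 5′-radiolabelled RNA pool carrying 7 randomized nucleotides, whose flanks were annealed to DNA oligonucleotides, over a series of increasing protein concentrations. Unbound RNA was resolved on 8% native PAGE, cut out, reverse-transcribed, barcoded by PCR and sequenced on an Illumina HiSeq 2500. Relative association constants were derived from changes in read counts for each RNA species versus the control reaction and normalised to the cognate motif.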
In the case of B1, the binding signal is reported as 0.288 KA relative to UGCAUGU.
B2 was tested, and the binding signal was 0.0578 KA relative to UGCAUGU.
With B3 the binding signal was 0.088 KA relative to UGCAUGU.
B4 was tested, and the binding signal was 0.0837 KA relative to UGCAUGU.
With B5 the binding signal was 0.0995 KA relative to UGCAUGU.
With B6 the binding signal was 0.113 KA relative to UGCAUGU.
For B7, the binding signal was 0.101 KA relative to UGCAUGU.
With B8 the binding signal was 0.0985 KA relative to UGCAUGU.
For B9, the binding signal was 0.167 KA relative to UGCAUGU.
For B10, the binding signal was 0.0926 KA relative to UGCAUGU.
With B11 the binding signal was 0.106 KA relative to UGCAUGU.
In the case of B12, the binding signal is reported as 0.293 KA relative to UGCAUGU.
In the case of B13, the binding signal is reported as 0.171 KA relative to UGCAUGU.
With B14 the binding signal was 0.128 KA relative to UGCAUGU.
In the case of B15, the binding signal is reported as 0.116 KA relative to UGCAUGU.
In the case of B16, the binding signal is reported as 0.551 KA relative to UGCAUGU.
B17 was tested, and the binding signal was 0.213 KA relative to UGCAUGU.
With B18 the binding signal was 0.0668 KA relative to UGCAUGU.
B19 was tested, and the binding signal was 0.0896 KA relative to UGCAUGU.
In the case of B20, the binding signal is reported as 0.0852 KA relative to UGCAUGU.
With B21 the binding signal was 0.0914 KA relative to UGCAUGU.
With B22 the binding signal was 0.103 KA relative to UGCAUGU.
In the case of B23, the binding signal is reported as 0.274 KA relative to UGCAUGU.
For B24, the binding signal was 0.0865 KA relative to UGCAUGU.
In the case of B25, the binding signal is reported as 0.192 KA relative to UGCAUGU.
For B26, the binding signal was 0.156 KA relative to UGCAUGU.
B27 was tested, and the binding signal was 0.143 KA relative to UGCAUGU.
In the case of B28, the binding signal is reported as 0.102 KA relative to UGCAUGU.
For B29, the binding signal was 0.155 KA relative to UGCAUGU.
In the case of B30, the binding signal is reported as 0.0917 KA relative to UGCAUGU.
For B31, the binding signal was 0.103 KA relative to UGCAUGU.
